# About 14,000 (4.5%) of roughly 310,000 compounds showed an effect of 50% or more. Effects have a minus sign here. The list shows a part of the results.
# Target: human ether-à-go-go-related gene (hERG) potassium channel (human, UniProt Q12809)
# Assay: primary screen, population patch clamp on CHO cells stably expressing hERG
# 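Note: peak tail current of the secondary pulse compared with the same well before compound.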
# Chain of human ether-à-go-go-related gene (hERG) potassium channel (Q12809 whole entry, looked up): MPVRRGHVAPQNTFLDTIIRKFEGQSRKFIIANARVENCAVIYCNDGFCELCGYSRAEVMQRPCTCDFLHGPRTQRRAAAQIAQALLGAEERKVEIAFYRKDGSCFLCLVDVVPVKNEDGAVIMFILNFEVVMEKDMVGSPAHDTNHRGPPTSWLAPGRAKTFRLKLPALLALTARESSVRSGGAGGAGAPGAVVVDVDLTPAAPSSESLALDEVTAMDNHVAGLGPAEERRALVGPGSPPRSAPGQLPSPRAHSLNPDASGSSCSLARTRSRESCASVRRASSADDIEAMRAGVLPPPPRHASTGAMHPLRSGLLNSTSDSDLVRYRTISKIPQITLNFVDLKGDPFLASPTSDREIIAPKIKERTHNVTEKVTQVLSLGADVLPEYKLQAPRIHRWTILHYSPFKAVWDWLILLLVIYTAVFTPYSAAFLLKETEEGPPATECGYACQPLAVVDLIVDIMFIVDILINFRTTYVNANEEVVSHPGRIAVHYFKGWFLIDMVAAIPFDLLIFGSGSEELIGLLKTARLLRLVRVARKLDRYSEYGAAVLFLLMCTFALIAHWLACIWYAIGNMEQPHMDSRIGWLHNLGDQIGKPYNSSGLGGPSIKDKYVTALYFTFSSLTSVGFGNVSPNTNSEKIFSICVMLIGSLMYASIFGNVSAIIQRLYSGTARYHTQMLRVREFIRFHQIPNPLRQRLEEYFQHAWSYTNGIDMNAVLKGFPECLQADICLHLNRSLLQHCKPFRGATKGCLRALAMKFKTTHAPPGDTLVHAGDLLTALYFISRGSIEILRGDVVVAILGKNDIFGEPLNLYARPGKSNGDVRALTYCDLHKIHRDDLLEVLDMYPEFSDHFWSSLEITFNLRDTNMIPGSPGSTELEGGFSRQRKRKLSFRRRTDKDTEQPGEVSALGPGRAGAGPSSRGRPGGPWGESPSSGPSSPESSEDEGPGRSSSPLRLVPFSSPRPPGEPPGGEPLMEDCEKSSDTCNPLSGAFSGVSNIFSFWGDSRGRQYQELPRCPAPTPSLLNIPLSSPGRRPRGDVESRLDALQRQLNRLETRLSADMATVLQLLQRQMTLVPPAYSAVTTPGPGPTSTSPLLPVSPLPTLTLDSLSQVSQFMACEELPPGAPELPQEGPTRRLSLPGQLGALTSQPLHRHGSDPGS
row,Structure (SMILES),"hERG current change (%, negative = inhibition) at 10uM"
1,COc1ccc(CC(CC(=O)O)C(=O)Nc2ccccc2)cc1 (centres unmarked),8.09%
2,CC(OC(=O)c1ccc(-n2cnnn2)cc1)C(=O)Nc1ccccc1F (centres unmarked),-23.2%
3,C=CCn1c(SCC(=O)CC(=O)OCC)nc2cc(C(=O)N3CCC(C(N)=O)CC3)ccc2c1=O,13.7%
4,CN(C)N1C(N)=C(C#N)C(c2ccccc2F)C2=C1CC(C)(C)CC2=O (centres unmarked),5.46%
5,Cc1cnc2cc(Cl)ccc2c1SCC(=O)O,12.3%
6,CC(=O)c1cc(C#N)c(SCc2ccncc2)nc1C,-8.93%
7,Cc1c(C(=O)N2CCN(c3ccccc3F)CC2)oc2c1C(=O)CC(C)(C)C2,-3.95%
8,C=CCn1c(SCC(=O)Nc2ccc(OC)cc2)nc2ccccc2c1=O,8.2%
9,Cn1c(=O)c2c(nc(CN3CCC(C(N)=O)CC3)n2Cc2c(F)cccc2Cl)n(C)c1=O,-3.93%
10,COc1ccc(NC(=O)Cn2cnc3c(cnn3C(C)(C)C)c2=O)cc1OC,-5.43%
11,COC(=O)C1=C(c2cccc(OC)c2OC)C[C@@H]2CC[C@H]1N2C(=O)NC1CCCCC1,3.59%
12,CCOc1cc(C2c3c(n[nH]c3C)C(=O)N2c2ccc(C)cc2)ccc1O (centres unmarked),-2.92%
13,C=CCNC(=S)/N=c1/ccccn1C,-5.42%
14,CC1(C(=O)N2CCC(CC3CC(c4cccc(Br)c4)=NO3)(C(=O)NCC3CCCCC3)CC2)CC1 (centres unmarked),-20.1%
15,CN(C)c1ccc(NC(=O)C(=O)C2C(=O)Nc3ccccc32)cc1 (centres unmarked),-2.13%
16,O=C1CN(C(=O)CN2CCOCC2)C(c2ccccc2)c2cc(Br)ccc2N1 (centres unmarked),-32.3%
17,CCNC(=O)Oc1ccc[nH]c1=O,17.5%
18,O=C(CSc1ncnc2scc(-c3ccccc3)c12)Nc1ccc(C(=O)O)cc1,8.17%
19,CCOC(=O)c1c(C)[nH]c(C(=O)OCC(=O)c2c(N)n(C)c(=O)n(C)c2=O)c1C,15.3%
20,c1coc(-c2nnc3sc(-c4cccs4)nn23)c1,-22.5%
21,Cc1ccnc(N/C=C(/NC(=O)c2ccccc2)C(=O)N/N=C\c2ccc(F)cc2)n1,-41.9%
22,CC(C)c1ccc(N2C(=O)NC(=O)/C(=C\c3cnc(-c4ccccc4)nc3)C2=O)cc1,19.2%
23,Cc1[nH]c(=O)[nH]c(=O)c1CSc1nnc(CCCCCNC(=O)OC(C)(C)C)o1,5.71%

row,Structure (SMILES),"hERG current change (%, negative = inhibition) at 10uM"
1,CC1=C(C)C(=O)N(CCC(=O)O)C1=O,10.6%
2,CCN(CC(=O)Nc1ccc(Br)cc1)C(=O)Cc1cccc(F)c1,-17.4%
3,C=C1CCN([C@@H](Cc2ccccc2)C(=O)NCCCc2ccccc2)S(=O)(=O)c2ccccc21,3.69%
4,CCCCCn1c(SCCC(C)C)nc2c1c(=O)[nH]c(=O)n2C,-11.9%
5,O=c1c2[nH]c3ccc(F)cc3c2nc2n1CCS2,-0.967%
6,Cc1occc1C(=O)NNC(=O)c1ccccc1F,13%
7,CC(=O)OCCNc1nc(-c2ccccc2)nc2ccccc12,-33.7%
8,CC(C)C(c1nnnn1Cc1cccs1)N1CCN(C(=O)c2ccco2)CC1 (centres unmarked),-31.6%
9,O=C(N/N=C/c1cccc([N+](=O)[O-])c1)c1c[nH]c2ccccc12,4.28%
10,CCOc1ccc(C(=O)c2ccc([N+](=O)[O-])cc2Cl)cc1,20.3%
11,Cc1ccc(NC(=O)CSc2nnc3ccccn23)cc1S(=O)(=O)N1CCOCC1,-19.6%
12,O=C(CCc1ccccc1)Nc1cccnc1,0.0645%
13,CNC(=O)c1[nH]cnc1C(=O)Nc1ccccc1C,16.8%
14,Cc1cccc(N2CCc3c2nc2ccccc2c3N)c1.Cl,-61.9%
15,CCNC(=O)c1oc2c(c1C)C(=O)CC(C)(C)C2,10.7%
16,COc1cc(NC(=O)N[C@@H](Cc2ccccc2)C(=O)O)cc(OC)c1,-3.09%
17,CCCc1cc(=O)oc2c(CN(CC)CC)c(O)c(Cl)cc12,-39.8%
18,Cc1ccc(/C(O)=C2/C(=O)C(=O)N(Cc3cccnc3)C2c2ccccn2)cc1 (centres unmarked),22.2%
19,COc1cccc(N2CCN(C(=O)c3cn(Cc4ccccc4)nc3-c3cccnc3)CC2)c1,-12.9%
20,COc1cccc(CSc2ccc(S(=O)(=O)N3CCOCC3)cc2C(=O)NCC2CCCO2)c1OC (centres unmarked),-2.22%
21,O=C1Nc2ccccc2C1Cc1nc2ccccc2c(=O)n1-c1ccccc1 (centres unmarked),-4.02%
22,CCC(C)(C)NC(=O)C(c1ccc(OC)cc1)N(C(=O)CCC(=O)Nc1cc(C)on1)C(C)(C)C (centres unmarked),-27.1%
23,CC1CN(CC(=O)Nc2ccccc2Sc2ccccc2)CC(C)O1 (centres unmarked),-17.4%

row,Structure (SMILES),"hERG current change (%, negative = inhibition) at 10uM"
1,CC(NC(=O)CSc1ncccn1)c1ccccc1 (centres unmarked),3.07%
2,CCOc1ccc(NC2OCC(O)C(O)C2O)c([N+](=O)[O-])c1 (centres unmarked),33.2%
3,CCCCN(C(=O)CSCC(=O)Nc1ccc(C)cc1)c1c(N)n(CCCC)c(=O)[nH]c1=O,6.71%
4,O=C1c2ccccc2-n2c1nc1ccccc1c2=O,6.4%
5,Br.CCCCCCn1c2c(c(=N)c3c1CCC3)CCC2,-76.5%
6,CCO[C@H]1OC(C(=O)O)=C[C@@H](C2CC2)[C@@H]1CCCO,2.83%
7,CCCCn1nnnc1NCc1cccs1,-6.33%
8,N#C/C(=C\c1ccc(N2CCOCC2)o1)c1ccccc1,13.5%
9,O=C1S/C(=C/c2ccccc2)C(=O)N1CC(O)Cn1c2ccccc2c2ccccc21 (centres unmarked),13.5%
10,O=C(O)CSCC(=O)N1CCN(S(=O)(=O)c2cc(Cl)cc(Cl)c2)CC1,14.8%
11,O=c1c2ccccc2nc(COc2ccccc2)n1/N=C/c1c[nH]c2ccccc12,14.2%
12,COc1ccc2nc(NC(=O)c3ccc(Br)s3)sc2c1,15.9%
13,CCN1C=C(C(=O)OC)C(c2cccc(OC)c2OC)C(C(=O)OC)=C1,7.46%
14,COc1cc(NC(=O)CN2CCC(C)CC2)c(C)cc1[N+](=O)[O-],0.236%
15,CN(C)c1ccnc(-n2cccc2/C=N/OCc2ccc(F)cc2Cl)c1C#N,-9.67%
16,COC(=O)c1[nH]c2cccc(Cl)c2c1NC(=O)CN1CCCCC1C (centres unmarked),-3.86%
17,Cc1ccc(CC2CC(=O)N(C(Cc3ccccc3)C(=O)O)C2=O)cc1 (centres unmarked),13.9%
18,CCOc1ccc(CCNC(=O)COC(=O)/C=C/c2ccco2)cc1OCC,12.9%
19,CC(C)Cc1nnc(NC(=O)CCC(=O)N2CCC(C)CC2)s1,0.442%
20,COC(=O)c1sccc1NC(=O)Nc1ccc(OC)cc1,4.01%
21,CC1CCN(C(=O)CSCc2ccc(Cl)cc2)CC1,-8.41%
22,CCOC(=O)C1CCN(C(=O)c2ccc(OCC(=O)Nc3cccc(C(F)(F)F)c3)cc2)CC1,-55.5%
23,CCOC(=O)C1Cc2c([nH]c3ccccc23)C(C)N1.Cl (centres unmarked),9.14%

row,Structure (SMILES),"hERG current change (%, negative = inhibition) at 10uM"
1,Cc1cc[n+](-c2[nH]c(=O)sc2/C=N/NC([S-])=Nc2ccccc2)cc1,1.87%
2,Cc1cc(=O)[nH]c(SCC(=O)N2CCCCC2)n1,11.2%
3,CC(=O)Nc1ccc(Cl)c(C(N)=O)c1,9.7%
4,N#Cc1cc2c(=O)n3ccccc3nc2n(CCCN2CCOCC2)c1=O,-24.3%
5,COc1ccc(C(=O)c2c3ccc(C(F)(F)F)cc3[n+]([O-])n2CCC[NH3+])cc1.[Cl-],-73.3%
6,O=C(Nc1ccc(Oc2ccccc2)cc1)c1cnc2n(c1=O)CCS2,19.4%
7,COc1ccc(C(=O)N2CCCC(CCC(=O)N3CCN(c4ccccn4)CC3)C2)cc1 (centres unmarked),-12.3%
8,COc1cc(-c2nnc(COC(=O)c3ccc(C)o3)o2)cc(OC)c1OC,7.46%
9,CC(=O)c1ccc(NC(=O)C(Cc2ccccc2)NC(=O)c2ccco2)cc1 (centres unmarked),-5.77%
10,CN(C)NC(=S)Nc1cccc(C(F)(F)F)c1,3.31%
11,O=C(CSc1ncc(-c2ccc(F)cc2)[nH]1)NCc1ccco1,-0.752%
12,CC(CN1CCOCC1)OC(=O)c1ccccc1.Cl (centres unmarked),11.8%
13,CCCSCCCNC(=O)CC1Oc2ccccc2NC1=O (centres unmarked),-11.2%
14,COc1cccc(NC(=O)CN2CCN(S(=O)(=O)c3ccc(C(C)C)cc3)CC2)c1,-22.8%
15,Clc1ccc(-n2ncc3c(NCc4ccco4)ncnc32)cc1,0.631%
16,Cc1ccc(-c2csc(NNC(=O)c3ccccc3)n2)cc1,-15.4%
17,COc1ccc(-n2cccc2C=O)cc1,16.7%
18,CCN1CCN(c2c(Cl)cccc2NC(=O)c2ccc3nsnc3c2)CC1,-49.5%
19,CC(=O)c1c(C)oc2ccc(N(C(=O)C3CCCCC3)S(=O)(=O)c3cc([N+](=O)[O-])ccc3C)cc12,-1.48%
20,OC(c1cccs1)c1nccc2ccccc12 (centres unmarked),13.3%

# From PMC4336329 (PLoS ONE, 2015)
